Data: PubChem BioAssay (Tox21)
Values joined by “and” are separate entries in the source; they are usually repeats but may differ in a detail not shown here. Equal entries are not always repeated. Inconclusive results, whose numbers are uncertain, are shown with a selection of clear calls. Potencies beside an inconclusive call are fits to weak or partial responses and may not hold up. More than one record can exist for a structure, and the calls need not agree. Active and inactive are the calls of the source. Unless noted, calls follow the shape of the dose curve; as a rule, active = well fitted curve in the direction sought with a large enough effect in the repeat runs; inconclusive = weak or mixed curves; inactive = no such curve, though single readings can be large; an effect the other way counts as inactive or inconclusive.

How the values were obtained:
[1] = qHTS assay to identify small molecule agonists of the sonic hedgehog signaling (Shh) pathway - cell viability counter screen (AID 1259366); conditions: NIH/3T3 Gli1-Luc viability, CellTiter-Fluor, 24 h; series mostly up to 92.4 µM; also: nearly all actives have a fitted effect of over 50% in size
Method in brief: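 NIH/3T3-derived Gli1-Luc reporter cells, 2,000 per well, received compound after 4 h and were treated about 23 h at 37C. Viability measured in the same wells by CellTiter-Fluor fluorescence after 1 h.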

[2] = qHTS assay to identify small molecule antagonists of the sonic hedgehog signaling (Shh) pathway - cell viability counter screen (AID 1259367); conditions: NIH/3T3 Gli1-Luc viability, CellTiter-Fluor, 24 h; series mostly up to 92.4 µM; also: nearly all actives have a fitted effect of over 55% in size
Method in brief: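 Conditioned medium drove Shh signaling in 3T3 Gli1-Luc cells exposed to compounds at 37C and 5% CO2. Viability was determined from CellTiter-Fluor fluorescence, with reagent incubated 1 hr after 23 hr of treatment.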

[3] = qHTS assay to identify small molecule antagonists of the sonic hedgehog signaling (Shh) pathway (AID 1259369; calls by dose curve; also: nearly all actives have a fitted effect of over 45% in size); conditions: NIH/3T3 Gli1-Luc reporter, Shh antagonist, luminescence 24 h; series mostly up to 92.4 µM
Method in brief: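 Cells are plated and held 4hr at 37 C, compounds (DMSO) are pinned in, conditioned medium is added to stimulate the pathway, and after 24hr luciferase reagent is added for 30min before luminescence is read.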

[4] = qHTS assay to identify small molecule agonists of the sonic hedgehog signaling (Shh) pathway (AID 1259368; calls by dose curve; also: nearly all actives have a fitted effect of over 15% in size); conditions: NIH/3T3 Gli1-Luc reporter, luciferase, 24 h; series mostly up to 92.4 µM
Method in brief: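 Cells of a mouse NIH/3T3 clone stably expressing luciferase under the Gli1 transcriptional response element are exposed to test chemicals for 24 hr at 37 C. Pathway activation is detected as a rise in luminescence.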
Potency is read from the fitted curve at half-maximal effect; tags tell the direction and shape of the fitted curve.

**Q.** Which Potency [1] does the source give for `O=c1[nH]c(=O)n([C@H]2CCCO2)cc1F` here?
**A.** inactive

**Q.** For `CC[C@]1(O)C[C@@H]2CN(CCc3c([nH]c4ccccc34)[C@@](C(=O)OC)(c3cc4c(cc3OC)N(C)[C@H]3[C@@](O)(C(=O)OC)[C@H](OC(C)=O)[C@]5(CC)C=CCN6CC[C@]43[C@@H]65)C2)C1`, which Potency [1] is on record?
**A.** inconclusive: 11.9 µM [cytotoxic, full curve] and active: 11.9 µM

**Q.** What about the Potency [2] of the same compound?
**A.** inconclusive: 1.19 µM [cytotoxic, full curve, poor fit]

**Q.** What about the Potency [3] of the same compound?
**A.** inconclusive: 0.119 µM [inhibitor]

**Q.** With `C=CC(=O)OCCCCCC` as the compound, how does the Potency [1] read?
**A.** inactive

**Q.** With `Nc1ncnc2c1ncn2[C@H]1CC[C@@H](CO)O1` as the compound, how does the Potency [1] read?
**A.** inactive

**Q.** And the Potency [2]?
**A.** inactive

**Q.** With `CC1=CCC(=C(C)C)CC1` as the compound, how does the Potency [1] read?
**A.** inactive

**Q.** With `Cc1ccc([N+](=O)[O-])c(N)c1` as the compound, how does the Potency [1] read?
**A.** inconclusive: 66.9 µM [cytotoxic, single point]

**Q.** What about the Potency [2] of the same compound?
**A.** inconclusive: 66.9 µM [cytotoxic, single point]

**Q.** With `[O]=[Zr]` as the compound, how does the Potency [1] read?
**A.** inconclusive: 27.2 µM [rising, partial curve]

**Q.** Which results are given for `COC(=O)/C=C/c1ccccc1`?
**A.** Potency [1]: inconclusive: 77 µM [cytotoxic, single point]; Potency [2]: inconclusive: 48.6 µM [cytotoxic, partial curve]

**Q.** With `O=C1CCc2ccc(OCCCCN3CCN(c4cccc(Cl)c4Cl)CC3)cc2N1` as the compound, how does the Potency [1] read?
**A.** inconclusive: 29.8 µM [cytotoxic, single point]

**Q.** Which Potency [1] does the source give for `NC1[C@H]2CN(c3nc4c(cc3F)c(=O)c(C(=O)O)cn4-c3ccc(F)cc3F)C[C@@H]12` (stereo not given in full) here?
**A.** active: 21.1 µM

**Q.** What about the Potency [2] of the same compound?
**A.** inconclusive: 13.3 µM [cytotoxic, partial curve]

**Q.** What does the source list for `C[C@@H](O[C@H]1OCCN(Cc2n[nH]c(=O)[nH]2)[C@H]1c1ccc(F)cc1)c1cc(C(F)(F)F)cc(C(F)(F)F)c1`?
**A.** Potency [1]: inconclusive: 33.5 µM [cytotoxic, single point]; Potency [2]: inconclusive: 21.1 µM [cytotoxic, partial curve]

**Q.** With `CCCC1CCC(=O)CC1` as the compound, how does the Potency [1] read?
**A.** inactive

**Q.** For `C=C(C)C(=O)OCCOc1ccccc1`, which Potency [1] is on record?
**A.** inconclusive: 77 µM [rising, partial curve, poor fit]

**Q.** And the Potency [2]?
**A.** inconclusive: 68.6 µM [cytotoxic]

**Q.** For `CC(O)CN(CCN(CC(C)O)CC(C)O)CC(C)O` (stereo not given), which Potency [1] is on record?
**A.** inactive

**Q.** Which Potency [1] does the source give for `O=C(Cl)c1cccc(C(=O)Cl)c1` here?
**A.** inactive

**Q.** For `O=c1[nH]sc2cc(Cl)ccc12`, which Potency [1] is on record?
**A.** inconclusive: 33.5 µM [cytotoxic, single point]

**Q.** For `Cc1cc(C2(c3cc(C)c(O)cc3C)OS(=O)(=O)c3ccccc32)c(C)cc1O`, which Potency [1] is on record?
**A.** active: 24.3 µM and active: 12.2 µM

**Q.** What about the Potency [2] of the same compound?
**A.** active: 27.3 µM and active: 13.7 µM

**Q.** Which Potency [1] does the source give for `Nc1ccc(Oc2ccc(N)c(N)c2)cc1` here?
**A.** inconclusive: 68.6 µM [cytotoxic, single point]

**Q.** And the Potency [2]?
**A.** inactive

**Q.** And the Potency [4]?
**A.** inconclusive: 5.45 µM [activator, partial curve]

**Q.** For `CC1CCC(C(C)CS)CC1S` (stereo not given), which Potency [1] is on record?
**A.** inactive

**Q.** Which Potency [1] does the source give for `C=CCN1C[C@H](C(=O)N(CCCN(C)C)C(=O)NCC)C[C@@H]2c3cccc4[nH]cc(c34)C[C@H]21` here?
**A.** inconclusive: 13.3 µM [cytotoxic, partial curve, poor fit]

**Q.** Which Potency [1] does the source give for `O=C(O)Cn1c(=O)n(Cc2ccc(Br)cc2F)c(=O)c2ccc(Cl)cc21` here?
**A.** inconclusive: 15 µM [cytotoxic, partial curve]

**Q.** What about the Potency [2] of the same compound?
**A.** inconclusive: 21.1 µM [cytotoxic, partial curve]

**Q.** For `CCCCCCCCCC(=O)OC`, which Potency [1] is on record?
**A.** inactive

**Q.** Which Potency [1] does the source give for `CCC(=O)O[C@H]1[C@H](O[C@@H]2[C@@H](C)[C@H](O[C@H]3C[C@@](C)(OC)[C@@H](O)[C@H](C)O3)[C@@H](C)C(=O)O[C@H](CC)[C@@](C)(O)[C@H](O)[C@@H](C)C(=O)[C@H](C)C[C@@]2(C)O)O[C@H](C)C[C@@H]1N(C)C` here?
**A.** active: 16.1 µM

**Q.** What about the Potency [2] of the same compound?
**A.** active: 14.4 µM and inconclusive: 21.1 µM [cytotoxic, partial curve, poor fit]

**Q.** With `Clc1ccc(Nc2nnc(Cc3ccncc3)c3ccccc23)cc1` as the compound, how does the Potency [1] read?
**A.** inconclusive: 18.8 µM [cytotoxic, partial curve, poor fit]

**Q.** What about the Potency [2] of the same compound?
**A.** inconclusive: 15 µM [cytotoxic, partial curve, poor fit]

**Q.** For `CCCCCCCCCc1ccc(OCCOCCO)cc1`, which Potency [1] is on record?
**A.** inconclusive: 25.6 µM [cytotoxic, single point]

**Q.** What about the Potency [2] of the same compound?
**A.** inconclusive: 22.8 µM [cytotoxic, single point]
